Experimental data published in a collection of fitness landscapes (doi:10.1016/j.celrep.2020.107928).
Whole data set: some 81,000 sequences, median “one-hybrid fitness for binding parS DNA” near -0.17, cut for the highest 2% near 0.51. This is one part of the list.

B1: Caulobacter ParB omega fusion; a variant is named by its letters at X, in order, B8GW30 (parent)
chain: MESVVVGEPGMSEGRRGLGRGLSALLGEVDAAPAQAPGEQLGGSREAPIEILQRNPDQPRRTFREEDLEDLSNSIREKGVLQPILVRPSPDTAGEYQIVAGERAWRAAQRAGLKTVPIMVRELDDLAVLEIGIIENVQRADLNVLEEALSYKVLMEKFERTQENIAQTIGKSXSHVANXMRLLXLPDEVQSYLVSGELTAXHARAIAAAADPVALAKQIIEGGLSVRETEALARKAPNLSAGKSKGGRPPRVKDTDTQALESDLSSVLGLDVSIDHRGSTGTLTITYATLEQLDDLCNRLTRGI

Variants of: B1
Assay: one-hybrid fitness for binding parS DNA (scaled: cognate 1, non-cognate 0); higher = stronger binding
Details: with parS DNA site
Outline: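 In E. coli USO, a HIS3 reporter with its site placed 19 bp from the promoter was used to select Caulobacter ParB variants randomised at four specificity codons. Growth lasted 48 hours at 37°C on histidine-free M9 containing 0.1 mM IPTG and 5 mM 3-AT. Fitness was taken as the log change in variant-to-wild-type read ratio from Illumina sequencing of pre- and post-selection plasmids, rescaled between the non-cognate and cognate sites.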

Row | Variant | one-hybrid fitness for binding parS DNA
1 | RLKF | 0.389
2 | WTET | ≤ 0.2
3 | TLYF | ≤ 0.2
4 | QFHV | ≤ 0.2
5 | KKYF | ≤ 0.2
6 | GMTI | ≤ 0.2
7 | RKQA | 0.712
8 | AGGE | ≤ 0.2
9 | QSGK | ≤ 0.2
10 | HRTQ | ≤ 0.2
11 | GKNS | ≤ 0.2
12 | REWG | ≤ 0.2
13 | IRVS | ≤ 0.2
14 | PTRM | ≤ 0.2
15 | NLPR | ≤ 0.2
16 | WMLN | ≤ 0.2
17 | QHSV | ≤ 0.2
18 | DAVM | ≤ 0.2
19 | RQEK | ≤ 0.2
20 | CAMR | ≤ 0.2
21 | CTNP | ≤ 0.2
22 | TGSE | ≤ 0.2
23 | EGET | ≤ 0.2
24 | ATMW | ≤ 0.2
25 | SECC | ≤ 0.2

Row | Variant | one-hybrid fitness for binding parS DNA
26 | IKLC | ≤ 0.2
27 | ETTG | ≤ 0.2
28 | ACAK | ≤ 0.2
29 | PAKE | ≤ 0.2
30 | CQVR | ≤ 0.2
31 | TKNI | ≤ 0.2
32 | PHMI | ≤ 0.2
33 | HEHD | ≤ 0.2
34 | RFGQ | ≤ 0.2
35 | WSKT | ≤ 0.2
36 | TKCV | ≤ 0.2
37 | GCHR | ≤ 0.2
38 | VSAV | ≤ 0.2
39 | TGMI | ≤ 0.2
40 | VLCY | ≤ 0.2
41 | VELL | ≤ 0.2
42 | EQGH | ≤ 0.2
43 | PTSA | ≤ 0.2
44 | MNSN | ≤ 0.2
45 | MPTA | ≤ 0.2
46 | ASTA | ≤ 0.2
47 | TKLY | ≤ 0.2
48 | WCHC | ≤ 0.2
49 | ITKY | ≤ 0.2
50 | CFAT | ≤ 0.2

Row | Variant | one-hybrid fitness for binding parS DNA
51 | SSDN | ≤ 0.2
52 | LAPY | ≤ 0.2
53 | MLTR | ≤ 0.2
54 | TYQD | ≤ 0.2
55 | PVRR | ≤ 0.2
56 | FCVS | ≤ 0.2
57 | VIPS | ≤ 0.2
58 | LYID | ≤ 0.2
59 | WQVT | ≤ 0.2
60 | ETRW | ≤ 0.2
61 | QATQ | ≤ 0.2
62 | RMPL | ≤ 0.2
63 | DCSS | ≤ 0.2
64 | MPRG | ≤ 0.2
65 | YHCT | ≤ 0.2
66 | MRAP | ≤ 0.2
67 | PCIV | ≤ 0.2
68 | WPSA | ≤ 0.2
69 | YVNS | ≤ 0.2
70 | WNYR | ≤ 0.2
71 | NAEW | ≤ 0.2
72 | LRDY | ≤ 0.2
73 | SYSF | ≤ 0.2
74 | PGQM | ≤ 0.2
75 | CWTC | ≤ 0.2

Row | Variant | one-hybrid fitness for binding parS DNA
76 | PAQD | ≤ 0.2
77 | DLFL | ≤ 0.2
78 | VTNA | ≤ 0.2
79 | SFNC | ≤ 0.2
80 | QGSV | ≤ 0.2
81 | QRVR | ≤ 0.2
82 | SVCC | ≤ 0.2
83 | MMGT | ≤ 0.2
84 | HVLF | ≤ 0.2
85 | QNRP | ≤ 0.2
86 | PPHG | ≤ 0.2
87 | PGKV | ≤ 0.2
88 | QDVR | ≤ 0.2
89 | NASQ | ≤ 0.2
90 | GMKL | ≤ 0.2
91 | EQMG | ≤ 0.2
92 | ICVS | ≤ 0.2
93 | PCVS | ≤ 0.2
94 | RVSV | ≤ 0.2
95 | RMFM | 0.369
96 | YFAG | ≤ 0.2
97 | YVEF | ≤ 0.2
98 | HLGT | ≤ 0.2
99 | RNCY | 0.235
100 | RVVV | ≤ 0.2

Row | Variant | one-hybrid fitness for binding parS DNA
101 | TNLT | ≤ 0.2
102 | IHSG | ≤ 0.2
103 | NPRI | ≤ 0.2
104 | FDTY | ≤ 0.2
105 | RKMD | ≤ 0.2
106 | PKSW | ≤ 0.2
107 | FLFS | ≤ 0.2
108 | QSDG | ≤ 0.2
109 | PVAC | ≤ 0.2
110 | FTGG | ≤ 0.2
111 | SVGE | ≤ 0.2
112 | CYYV | ≤ 0.2
113 | WEKR | ≤ 0.2
114 | WLIG | ≤ 0.2
115 | SMQP | ≤ 0.2
116 | QVDC | ≤ 0.2
117 | WSLY | ≤ 0.2
118 | SRSG | ≤ 0.2
119 | DWSV | ≤ 0.2
120 | TLSC | ≤ 0.2
121 | RLGH | 0.204
122 | APVN | ≤ 0.2
123 | TLTA | ≤ 0.2
124 | AMHS | ≤ 0.2
125 | GSGG | ≤ 0.2

Row | Variant | one-hybrid fitness for binding parS DNA
126 | HSVV | ≤ 0.2
127 | DWIS | ≤ 0.2
128 | SFGR | ≤ 0.2
129 | QTKL | ≤ 0.2
130 | TAFW | ≤ 0.2
131 | YRCT | ≤ 0.2
132 | TDWL | ≤ 0.2
133 | KMDR | ≤ 0.2
134 | EFMR | ≤ 0.2
135 | NIGR | ≤ 0.2
136 | VASA | ≤ 0.2
137 | EPLL | ≤ 0.2
138 | KQGN | ≤ 0.2
139 | ARIQ | ≤ 0.2
140 | REDM | ≤ 0.2
141 | TRRD | ≤ 0.2
142 | TLKQ | ≤ 0.2
143 | YQLF | ≤ 0.2
144 | DPRL | ≤ 0.2
145 | VYKG | ≤ 0.2
146 | PLMA | ≤ 0.2
147 | RVRY | 0.583
148 | MVVS | ≤ 0.2
149 | GVLT | ≤ 0.2
150 | QNWI | ≤ 0.2

Row | Variant | one-hybrid fitness for binding parS DNA
151 | SMGC | ≤ 0.2
152 | GIWV | ≤ 0.2
153 | NPLI | ≤ 0.2
154 | AHIF | ≤ 0.2
155 | HTPN | ≤ 0.2
156 | FCHL | ≤ 0.2
157 | RSMV | ≤ 0.2
158 | KIRM | ≤ 0.2
159 | KNAG | ≤ 0.2
160 | RFWC | 0.697
161 | TEDV | ≤ 0.2
162 | TWYS | ≤ 0.2
163 | LHMR | ≤ 0.2
164 | SSTE | ≤ 0.2
165 | MGMM | ≤ 0.2
166 | INQS | ≤ 0.2
167 | VMRL | ≤ 0.2
168 | TGNG | ≤ 0.2
169 | PYAV | ≤ 0.2
170 | CPSC | ≤ 0.2
171 | PLYN | ≤ 0.2
172 | PCLK | ≤ 0.2
173 | CRTG | ≤ 0.2
174 | WSCL | ≤ 0.2
175 | YWLR | ≤ 0.2

Row | Variant | one-hybrid fitness for binding parS DNA
176 | HSWA | ≤ 0.2
177 | MWTR | ≤ 0.2
178 | TKSI | ≤ 0.2
179 | CWQN | ≤ 0.2
180 | GPSL | ≤ 0.2
181 | CYIR | ≤ 0.2
182 | GNLD | ≤ 0.2
183 | APNR | ≤ 0.2
184 | ICTR | ≤ 0.2
185 | NQLV | ≤ 0.2
186 | IRDA | ≤ 0.2
187 | NVQI | ≤ 0.2
188 | HMES | ≤ 0.2
189 | VMQR | 0.262
190 | TWFC | ≤ 0.2
191 | SEEY | ≤ 0.2
192 | CKTP | ≤ 0.2
193 | NHAD | ≤ 0.2
194 | CMGG | ≤ 0.2
195 | PPNG | ≤ 0.2
